# The supplement of paper PMC5919970
# Counter-ions that a name gives are not always drawn. Whole data set: some 2,000 compounds, median “fractional viability relative to vehicle” near 0.91, cut for the lowest 2% near 0.045. The list shows a part of the results.
# System: TYKNU
# Assay: fractional viability relative to vehicle; TYKNU is a high-grade serous ovarian cancer line; higher = less growth inhibition
# Conditions: 72 h
# How it was run: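 TYKNU control cells or lentiCRISPRv2 knockout derivatives were seeded at 500 cells per well into drug-stamped 384-well plates holding a ~2100-compound library at 2 or 10 μM, in duplicate. Cells were grown at 37 °C in 5% CO2 in RPMI 1640 with 10% FBS, and drug treatment lasted 72 h. Viability was read by Cell Titer Glo luminescence. Duplicate treatment wells were averaged and normalised to duplicate control wells from the same plate position.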
# [1] = 2uM, genotype: DNM1L knockout (sgDNM1L #1)
# [2] = 2uM, genotype: sgCTRLA1 (non-targeting control)
# [3] = 10uM, genotype: DNM1L knockout (sgDNM1L #1)
# [4] = 10uM, genotype: sgCTRLA1 (non-targeting control)
SMILES,fractional viability [1],fractional viability [2],fractional viability [3],fractional viability [4]
Cc1onc(-c2ccccc2)c1-c1ccc(S(N)(=O)=O)cc1 [Valdecoxib],0.988,1.15,0.795,0.992
COc1ccc(CCN(C)CCCC(C#N)(c2ccc(OC)c(OC)c2)C(C)C)cc1OC (stereo unspecified) [Verapamil HCl],0.776,1.15,0.8,0.952
O=C(Nc1ccccc1)c1cc([N+](=O)[O-])ccc1Cl,1.2,1.12,0.887,0.989
C=C1C(=O)O[C@@H]2/C=C(\C)CC/C=C(\C)CC[C@@H]12 [Costunolide],0.946,1.05,0.226,0.249
C[C@]12CCC(=O)C=C1CC[C@@H]1[C@@H]2[C@@H](O)C[C@@]2(C)[C@H]1CC[C@]2(O)C(=O)CO [Hydrocortisone],1.09,1.12,1.07,1.06
C=CC(=O)Nc1cccc(C)c1Nc1ncc2cc(-c3c(Cl)c(OC)cc(OC)c3Cl)ccc2n1,0.616,0.744,0.173,0.202
O=C(CCc1ccc(O)cc1)c1c(O)cc(O)cc1O[C@@H]1O[C@H](CO)[C@@H](O)[C@H](O)[C@H]1O [Phlorizin],0.791,1.09,0.89,0.975
COc1ccccc1C(=O)Nc1cc2c(cc1N1CCCC1)n(C)c(=O)n2C,1.05,1.07,1.02,0.778
CN(N=O)C(=O)NC1C(O)OC(CO)C(O)C1O (stereo unspecified) [Streptozotocin (STZ)],1.1,1.2,0.905,1.2
Oc1ncnc2[nH]ncc12 [Allopurinol],0.988,1.05,0.917,0.912
C=C[C@]1(C)C[C@@H](OC(=O)CS[C@@H]2C[C@H]3CC[C@@H](C2)N3C)[C@]2(C)[C@H](C)CC[C@]3(CCC(=O)[C@H]32)[C@@H](C)[C@@H]1O [Retapamulin],0.735,0.778,0.486,0.466
C[N+]1(C)[C@@H]2CC[C@H]1C[C@@H](OC(=O)C(O)c1ccccc1)C2 (stereo partly specified) [Homatropine Methylbromide],1.04,1.07,0.761,1.02
COC(=O)C1=C(C)NC(C)=C(C(=O)OCCN2CCN(C(c3ccccc3)c3ccccc3)CC2)C1c1cccc([N+](=O)[O-])c1 (stereo unspecified) [Manidipine 2HCl],0.91,1.13,0.385,0.876
COC(=O)C1=C(C)NC(C)=C(C(=O)OCCN2CCN(C(c3ccccc3)c3ccccc3)CC2)C1c1cccc([N+](=O)[O-])c1 (stereo unspecified) [Manidipine],0.854,1.13,0.28,0.562
